Reference: the supplement of paper PMC4604168 (melanoma cell lines)
The list shows a part of the results. Most values come without repeats; read them as rough.

Columns and labels:
Test in all cases: cell count relative to DMSO control; melanoma cells; higher = more viable cells
Details in all cases: library dose: standard library concentration; 72 h
[1] = tested on: SkMel28
[2] = tested on: SkMel2
[3] = tested on: SkMel30
[4] = tested on: SkMel5
[5] = tested on: UACC257
[6] = tested on: UACC62
[7] = tested on: WM115
[8] = tested on: WM1716
[9] = tested on: WM1745
[10] = tested on: WM3526
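Note: cells treated in 1,536-well plates, then fixed and DAPI-stained, with nuclei counted from automated high-throughput microscope images.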

Compound	cell count [1]	cell count [2]	cell count [3]	cell count [4]	cell count [5]	cell count [6]	cell count [7]	cell count [8]	cell count [9]	cell count [10]
CS(=O)(=O)c1ccc(C(=O)Nc2ccc(Cl)c(-c3ccccn3)c2)c(Cl)c1 [vismodegib] + NC1(c2ccc(-c3nc4ccn5c(=O)[nH]nc5c4cc3-c3ccccc3)cc2)CCC1 [MK2206] (first compound 5 µM, partner dose 2 µM)	75.2%	71.4%	90.9%	81.1%	93.6%	53.5%	62%	91.5%	105%	71.6%
CCCS(=O)(=O)Nc1ccc(F)c(C(=O)c2c[nH]c3ncc(Cl)cc23)c1F + CO[C@@H]1[C@H](N(C)C(=O)c2ccccc2)C[C@H]2O[C@]1(C)n1c3ccccc3c3c4c(c5c6ccccc6n2c5c31)C(=O)NC4 [Midostaurin] (first compound 0.4 µM, partner dose 0.4 µM)	72%	59.7%	78.4%	77.9%	90.8%	65.6%	55.6%	54.3%	42.3%	83.8%
NC1(c2ccc(-c3nc4ccn5c(=O)[nH]nc5c4cc3-c3ccccc3)cc2)CCC1 + O=C(CCCCCCC(=O)Nc1ccccc1)NO [vorinostat] (first compound 2 µM, partner dose 0.4 µM)	38.8%	56.3%	73.1%	80.6%	55.2%	77.5%	78.5%	77%	86.5%	65.9%
CN(c1ncccc1CNc1nc(Nc2ccc3c(c2)CC(=O)N3)ncc1C(F)(F)F)S(C)(=O)=O + C[C@@H](Oc1cc(-c2cnn(C3CCNCC3)c2)cnc1N)c1c(Cl)ccc(F)c1Cl [Crizotinib] (first compound 0.4 µM, partner dose 1 µM)	87.2%	79.4%	122%	83.8%	77.1%	71.3%	58.4%	86.3%	49.8%	100%
CN(c1ncccc1CNc1nc(Nc2ccc3c(c2)CC(=O)N3)ncc1C(F)(F)F)S(C)(=O)=O + Cc1cc(N2CCOCC2)cc2[nH]c(-c3c(NC[C@@H](O)c4cccc(Cl)c4)cc[nH]c3=O)nc12 [BMS536924] (first compound 0.4 µM, partner dose 1 µM)	147%	94.5%	110%	128%	97.1%	102%	74.3%	104%	43.3%	99%
NC1(c2ccc(-c3nc4ccn5c(=O)[nH]nc5c4cc3-c3ccccc3)cc2)CCC1 + CCCS(=O)(=O)Nc1ccc(F)c(C(=O)c2c[nH]c3ncc(Cl)cc23)c1F [PLX4720] (first compound 2 µM, partner dose 0.4 µM)	27.9%	88.3%	86%	53.3%	92.3%	46.3%	32.4%	64.1%	64.9%	51.7%
NC1(c2ccc(-c3nc4ccn5c(=O)[nH]nc5c4cc3-c3ccccc3)cc2)CCC1 + C=CCNC1=C2C[C@@H](C)C[C@H](OC)[C@H](O)[C@@H](C)/C=C(\C)[C@H](OC(N)=O)[C@@H](OC)/C=C\C=C(/C)C(=O)NC(=CC1=O)C2=O [Tanespimycin] (first compound 2 µM, partner dose 0.01 µM)	45.2%	69.4%	90.9%	66.3%	92.2%	68.3%	13.8%	63.4%	71.8%	68%
CN(c1ncccc1CNc1nc(Nc2ccc3c(c2)CC(=O)N3)ncc1C(F)(F)F)S(C)(=O)=O + CCCS(=O)(=O)Nc1ccc(F)c(C(=O)c2c[nH]c3ncc(Cl)cc23)c1F [PLX4720] (first compound 0.4 µM, partner dose 0.4 µM)	38.5%	102%	81.7%	63.7%	89.3%	48.5%	63.5%	52.2%	68.1%	64.6%
CS(=O)(=O)c1ccc(C(=O)Nc2ccc(Cl)c(-c3ccccn3)c2)c(Cl)c1 [vismodegib] + COc1ccc(Cl)c(Nc2nc3ccccc3nc2NS(=O)(=O)c2cccc(NC(=O)C(C)(C)N)c2)c1 [XL147] (first compound 5 µM, partner dose 4 µM)	100%	88.1%	91.1%	109%	83.4%	65.8%	94.8%	98.1%	107%	85.3%
CS(=O)(=O)c1ccc(C(=O)Nc2ccc(Cl)c(-c3ccccn3)c2)c(Cl)c1 [vismodegib] + Nc1nc(F)nc2c1ncn2[C@@H]1O[C@H](CO)[C@@H](O)[C@@H]1O [fludarabine] (first compound 5 µM, partner dose 1 µM)	2.76%	1.64%	21.5%	61%	37%	109%	99.6%	94.6%	117%	24%
CN(c1ncccc1CNc1nc(Nc2ccc3c(c2)CC(=O)N3)ncc1C(F)(F)F)S(C)(=O)=O + Nc1ncn([C@H]2C[C@H](O)[C@@H](CO)O2)c(=O)n1 [decitabine] (first compound 0.4 µM, partner dose 0.5 µM)	101%	93.9%	108%	76%	93.4%	77%	71.8%	75.6%	87.1%	138%
